Test results reported in the CheMixHub viscosity set.
Further values from the same series stand in other lists.

Assay: xn = mol fraction of the nth substance listed

C1CCOC1 + O
Details	viscosity [mPa·s]
298 K, 101.3 kPa, x1 = 0.027	1.199
298 K, 101.3 kPa, x1 = 0.059	1.5
298 K, 101.3 kPa, x1 = 0.097	1.71
298 K, 101.3 kPa, x1 = 0.14	1.785
298 K, 101.3 kPa, x1 = 0.2	1.718
298 K, 101.3 kPa, x1 = 0.27	1.529
298 K, 101.3 kPa, x1 = 0.37	1.259
298.15 K, 101.3 kPa, x1 = 0.0588	1.49
298.15 K, 101.3 kPa, x1 = 0.1427	1.732
298.15 K, 101.3 kPa, x1 = 0.2725	1.49
298.15 K, 101.3 kPa, x1 = 0.4998	0.9234
308.15 K, 101 kPa, x1 = 0.1001	1.317
308.15 K, 101 kPa, x1 = 0.1199	1.345
308.15 K, 101 kPa, x1 = 0.1499	1.364
308.15 K, 101 kPa, x1 = 0.1699	1.358
308.15 K, 101 kPa, x1 = 0.2	1.325
308.15 K, 101 kPa, x1 = 0.2199	1.288
308.15 K, 101 kPa, x1 = 0.25	1.232
308.15 K, 101 kPa, x1 = 0.2701	1.204
308.15 K, 101 kPa, x1 = 0.3002	1.141
308.15 K, 101 kPa, x1 = 0.3499	1.054
308.15 K, 101 kPa, x1 = 0.3999	0.9465
308.15 K, 101 kPa, x1 = 0.4499	0.8537
308.15 K, 101 kPa, x1 = 0.5001	0.7841
308.15 K, 101 kPa, x1 = 0.5998	0.6571
308.15 K, 101 kPa, x1 = 0.7001	0.5626
308.15 K, 101 kPa, x1 = 0.8001	0.4917
308.15 K, 101 kPa, x1 = 0.9	0.4426
313.15 K, 101 kPa, x1 = 0.02	0.8139
313.15 K, 101 kPa, x1 = 0.05	0.9944
313.15 K, 101 kPa, x1 = 0.07	1.085
313.15 K, 101 kPa, x1 = 0.1001	1.161
313.15 K, 101 kPa, x1 = 0.1199	1.186
313.15 K, 101 kPa, x1 = 0.1499	1.204
313.15 K, 101 kPa, x1 = 0.1699	1.203
313.15 K, 101 kPa, x1 = 0.2	1.177
313.15 K, 101 kPa, x1 = 0.2199	1.146
313.15 K, 101 kPa, x1 = 0.25	1.094
313.15 K, 101 kPa, x1 = 0.3499	0.9442
313.15 K, 101 kPa, x1 = 0.3999	0.8569
313.15 K, 101 kPa, x1 = 0.4499	0.7789
313.15 K, 101 kPa, x1 = 0.5001	0.7128
313.15 K, 101 kPa, x1 = 0.5998	0.6065
313.15 K, 101 kPa, x1 = 0.7001	0.5207
313.15 K, 101 kPa, x1 = 0.8001	0.4565
313.15 K, 101 kPa, x1 = 0.9	0.4115
318.15 K, 101 kPa, x1 = 0.02	0.7338
318.15 K, 101 kPa, x1 = 0.05	0.8851
318.15 K, 101 kPa, x1 = 0.07	0.9613
318.15 K, 101 kPa, x1 = 0.1001	1.031
318.15 K, 101 kPa, x1 = 0.1199	1.052
318.15 K, 101 kPa, x1 = 0.1499	1.071
318.15 K, 101 kPa, x1 = 0.1699	1.07
318.15 K, 101 kPa, x1 = 0.2	1.054
318.15 K, 101 kPa, x1 = 0.2199	1.012
318.15 K, 101 kPa, x1 = 0.25	0.9698
318.15 K, 101 kPa, x1 = 0.2701	0.9661
318.15 K, 101 kPa, x1 = 0.3002	0.9237
318.15 K, 101 kPa, x1 = 0.3499	0.853
318.15 K, 101 kPa, x1 = 0.3999	0.7737
318.15 K, 101 kPa, x1 = 0.4499	0.7082
318.15 K, 101 kPa, x1 = 0.5001	0.6494
318.15 K, 101 kPa, x1 = 0.5998	0.5508
318.15 K, 101 kPa, x1 = 0.7001	0.4792
318.15 K, 101 kPa, x1 = 0.8001	0.4231
318.15 K, 101 kPa, x1 = 0.9	0.374
